Some of these densities may be calculated back from excess volumes.
Assay: xn = mol fraction of the nth substance listed
Conditions: 100 kPa

CCCC[n+]1ccccc1.O=C([O-])C(F)(F)F + O
mass density [kg/m3]
Conditions | x1 = 0.8635 | x1 = 0.8873 | x1 = 0.8962 | x1 = 0.917 | x1 = 0.9289 | x1 = 0.9691
293.15 K | 1339.1 | 1343 | 1344.5 | 1347.8 | 1349.7 | 1355.6
298.15 K | 1334.4 | – | 1340 | – | 1345.3 | 1351.4
303.15 K | 1330.6 | 1334.7 | 1336.1 | 1339.5 | – | 1347.3
308.15 K | 1327.7 | 1330.8 | 1332.6 | 1335.9 | 1338 | 1343.7
313.15 K | 1322.3 | 1326.2 | – | 1331.1 | 1333 | 1339
318.15 K | 1318.5 | – | – | 1327.1 | 1329.1 | 1334.9
323.15 K | 1314.5 | – | 1319.7 | 1323.1 | 1325.2 | 1330.9
328.15 K | 1310.3 | 1314.1 | 1315.9 | 1319.2 | – | 1326.9
333.15 K | 1306.1 | 1310 | 1311.7 | 1315 | 1317 | 1322.7
338.15 K | 1302.1 | 1305.7 | 1307.3 | 1310.8 | 1312.7 | –
343.15 K | 1297.5 | – | 1303.3 | – | 1308.6 | 1314.3

CCCCCC[n+]1ccccc1.O=C([O-])C(F)(F)F + O
mass density [kg/m3]
Conditions | x1 = 0.8314 | x1 = 0.8573 | x1 = 0.8883 | x1 = 0.9008 | x1 = 0.9309 | x1 = 0.9629
293.15 K | 1263.1 | – | 1273.3 | 1274.9 | 1279.9 | 1284.1
298.15 K | 1259.2 | 1264.8 | 1269.4 | – | 1276 | 1280.2
303.15 K | 1255.4 | – | 1265.7 | 1267.2 | 1272.3 | 1276.4
308.15 K | – | 1257 | – | – | 1268.3 | 1272.4
313.15 K | 1247.3 | – | 1257.6 | – | 1264.2 | 1268.3
318.15 K | 1243.4 | – | 1253.6 | 1255.2 | – | 1264.4
323.15 K | 1239.4 | 1245 | 1249.6 | 1251.2 | 1256.2 | 1260.4
328.15 K | 1235.6 | 1241.2 | 1245.9 | 1247.4 | 1252.5 | 1256.6
333.15 K | 1231.8 | 1237.4 | – | 1243.6 | 1248.7 | 1252.8
338.15 K | 1227.8 | 1233.4 | 1238.1 | 1239.6 | 1244.7 | 1248.8
343.15 K | 1224.4 | 1230 | 1234.7 | 1236.2 | – | 1245.4

CCCCC[n+]1ccccc1.O=C([O-])C(F)(F)F + O
mass density [kg/m3]
Conditions | x1 = 0.8375 | x1 = 0.8691 | x1 = 0.8805 | x1 = 0.9227 | x1 = 0.9446 | x1 = 0.9743
293.15 K | 1313.6 | 1315.1 | 1315.8 | 1318.3 | 1319.9 | 1321.4
298.15 K | 1310.6 | 1312.4 | – | 1315.3 | 1316.2 | 1317.6
303.15 K | 1306 | 1307.4 | 1308.1 | – | – | 1313.4
308.15 K | 1301.7 | 1303.3 | 1304.1 | 1306.2 | – | 1309.4
313.15 K | – | 1299.3 | 1299.9 | 1302.5 | 1303.6 | 1305.2
318.15 K | 1293.8 | 1295.2 | 1295.9 | 1298.4 | 1300 | 1301.5
323.15 K | 1289.9 | – | 1292 | 1294.4 | – | 1297.2
328.15 K | 1284.9 | – | 1287.5 | 1289.9 | 1291.3 | 1292.7
333.15 K | 1280.8 | – | 1283.2 | 1285.7 | – | 1288.8
338.15 K | 1277.2 | 1279 | 1279.6 | 1282 | – | 1284.8
343.15 K | – | 1274.6 | – | 1277.7 | 1279.1 | 1280.7

CCC[n+]1ccccc1.O=C([O-])C(F)(F)F + O
mass density [kg/m3]
Conditions | x1 = 0.8621 | x1 = 0.8919 | x1 = 0.9091 | x1 = 0.9269 | x1 = 0.9443 | x1 = 0.961
293.15 K | 1377.7 | 1381.5 | 1383.3 | 1385.1 | 1386.5 | 1387.9
298.15 K | 1374.1 | 1377.8 | 1379.6 | 1381.6 | 1382.9 | 1384.4
303.15 K | – | 1374.6 | 1376.2 | 1377.9 | – | 1381
308.15 K | 1365.3 | 1369 | 1370.9 | 1372.7 | 1373.9 | –
313.15 K | 1363.2 | 1366 | 1367.6 | 1369.7 | 1371.1 | 1372.7
318.15 K | 1357.6 | 1361.5 | 1363.2 | 1365 | 1366.5 | 1368.1
323.15 K | – | – | 1359.5 | 1361.3 | 1363 | –
328.15 K | – | 1353.7 | 1355.3 | 1357.1 | 1358.7 | –
333.15 K | 1346.7 | 1350.2 | – | 1353.8 | 1355.1 | –
338.15 K | 1344.1 | 1347.4 | 1349 | – | 1352.1 | 1353.2
343.15 K | 1340.2 | – | 1345 | 1346.7 | 1348.4 | 1349.9

CC[n+]1ccccc1.O=C([O-])C(F)(F)F + O
mass density [kg/m3]
Conditions | x1 = 0.8779 | x1 = 0.8977 | x1 = 0.9109 | x1 = 0.9267 | x1 = 0.9632 | x2 = 0.0181
293.15 K | – | – | – | 1414.2 | 1417.1 | –
298.15 K | 1404.4 | 1406.7 | 1408.5 | 1410.1 | 1413 | 1415.1
303.15 K | – | 1402.7 | 1404.7 | 1406.3 | 1409.3 | 1411.3
308.15 K | 1396.4 | 1398.6 | 1400.5 | 1402.2 | 1405 | 1407.3
313.15 K | 1392.7 | 1394.9 | 1396.8 | 1398.4 | 1401.4 | 1403.5
318.15 K | 1389.3 | 1391.5 | 1393.5 | – | 1397.9 | 1400.1
323.15 K | – | – | – | 1391.2 | 1394 | –
328.15 K | 1381.2 | 1383.4 | 1385.4 | 1386.9 | 1389.8 | 1392
333.15 K | – | 1379 | 1381.1 | 1382.6 | 1385.4 | 1387.7
338.15 K | – | 1374.8 | 1376.6 | 1378.5 | 1381.2 | –
343.15 K | 1368.7 | 1370.4 | 1372 | 1373.9 | 1376.9 | 1379.1

Source: a compilation of properties of binary mixtures (doi:10.1016/j.jct.2020.106366)
